Measurements from the supplement of paper PMC9174493.
The other results are listed elsewhere or left out. Single values of this set are uncertain. Values with irradiation are relative to irradiated vehicle.

These compounds were tested on A549-Dual (assay: ISRE reporter (Lucia luciferase) activity, viability-corrected, relative to vehicle (fold change vs vehicle); higher = more activation of STING-IRF / NF-kB immune response reporter). Conditions: 10 µM; irradiation: none.
For CNCCCC12CCC(c3ccccc31)c1ccccc12.Cl [Maprotiline HCl], the ISRE reporter was 1.96. CN(C)CCc1c[nH]c2ccc(Cn3cncn3)cc12.O=C(O)c1ccccc1 [Rizatriptan Benzoate] showed an ISRE reporter of 1.01. CCC(C)C(=O)OC1CC(O)C=C2C=CC(C)C(CCC(O)CC(O)CC(=O)[O-])C21.[Na+] (centres undefined) [Pravastatin sodium] gave an ISRE reporter of 0.744. CCCCOc1cc(C(=O)OCCN(CC)CC)ccc1N.Cl [Oxybuprocaine HCl] was tested, and the ISRE reporter was 0.866. For COc1cc(C)c(/C=C/C(C)=C/C=C/C(C)=C/C(=O)O)c(C)c1C [Acitretin], the ISRE reporter was 0.724. Work on CN1CCN(C2=Nc3cc(Cl)ccc3Nc3ccccc32)CC1 [Clozapine] yielded an ISRE reporter of 1.87. Cc1ccccc1C(OCCN(C)C)c1ccccc1.O=C(O)CC(O)(CC(=O)O)C(=O)O (centres undefined) [Orphenadrine Citrate] gave an ISRE reporter of 0.838. COc1ccc(C(C)=O)c(O)c1 [Paeonol] showed an ISRE reporter of 0.801. C[N+]1(C)C2CCC1CC(OC(=O)C(O)c1ccccc1)C2.[Br-] (centres undefined) [Homatropine Methylbromide] gave an ISRE reporter of 1.07. Work on Cl.Clc1cccc(Cl)c1NC1=NCCN1 [Clonidine HCl] yielded an ISRE reporter of 0.835. COc1ccc(/C=C/c2cc(OC)cc(=O)o2)cc1 [Yangonin] gave an ISRE reporter of 1.03. In the case of CC(CCc1ccccc1)NCC(O)c1ccc(O)c(C(N)=O)c1.Cl (centres undefined) [Labetalol HCl], the ISRE reporter is reported as 1. Compound [Cl][Cs] [Cesium chloride] has an ISRE reporter of 0.949. COc1cc2c(cc1O)CCC1C2CCC2(C)C(O)CCC12 (centres undefined) [2-Methoxyestradiol (2-MeOE2)] was tested, and the ISRE reporter was 1.44.
